Reference: the CheMixHub ionic liquid set
± gives the uncertainty stated by the source. The source gives many values for each of these; only a part stands here.

Experiment: xn = mol fraction of the nth substance listed
Details: 101 kPa

SMILES: COCCn1cc[n+](C)c1.N#C[S-] + CC1COC(=O)O1
- electrical conductivity (338.15 K, x1 = 0.1022): 2.34 ± 0.047 S/m
- viscosity (338.15 K, x1 = 0.1022): 1.44 ± 0.29 mPa·s
- electrical conductivity (338.15 K, x1 = 0.2001): 3.15 ± 0.063 S/m
- viscosity (338.15 K, x1 = 0.2001): 1.73 ± 0.35 mPa·s
- electrical conductivity (338.15 K, x1 = 0.3021): 3.15 ± 0.063 S/m
- viscosity (338.15 K, x1 = 0.3021): 2.2 ± 0.44 mPa·s
- electrical conductivity (338.15 K, x1 = 0.3996): 2.95 ± 0.059 S/m
- viscosity (338.15 K, x1 = 0.3996): 2.69 ± 0.54 mPa·s
- electrical conductivity (338.15 K, x1 = 0.5012): 2.71 ± 0.054 S/m
- viscosity (338.15 K, x1 = 0.5012): 3.18 ± 0.64 mPa·s
- electrical conductivity (338.15 K, x1 = 0.6015): 2.49 ± 0.05 S/m
- viscosity (338.15 K, x1 = 0.6015): 3.92 ± 0.79 mPa·s
- electrical conductivity (338.15 K, x1 = 0.7032): 2.27 ± 0.045 S/m
- viscosity (338.15 K, x1 = 0.7032): 5.1 ± 1 mPa·s
- electrical conductivity (338.15 K, x1 = 0.8004): 2.06 ± 0.041 S/m
- viscosity (338.15 K, x1 = 0.8004): 6.8 ± 1.4 mPa·s
- electrical conductivity (338.15 K, x1 = 0.9002): 1.88 ± 0.038 S/m
- viscosity (338.15 K, x1 = 0.9002): 9.2 ± 1.9 mPa·s
- electrical conductivity (338.15 K, x1 = 1): 1.72 ± 0.034 S/m
- viscosity (338.15 K, x1 = 1): 12.9 ± 2.6 mPa·s
- electrical conductivity (343.15 K, x1 = 0.1022): 2.51 ± 0.05 S/m
- viscosity (343.15 K, x1 = 0.1022): 1.36 ± 0.27 mPa·s
- electrical conductivity (343.15 K, x1 = 0.2001): 3.42 ± 0.068 S/m
- viscosity (343.15 K, x1 = 0.2001): 1.63 ± 0.33 mPa·s
- electrical conductivity (343.15 K, x1 = 0.3021): 3.43 ± 0.069 S/m
- viscosity (343.15 K, x1 = 0.3021): 2.05 ± 0.41 mPa·s
- electrical conductivity (343.15 K, x1 = 0.3996): 3.2 ± 0.064 S/m
- viscosity (343.15 K, x1 = 0.3996): 2.42 ± 0.48 mPa·s
- electrical conductivity (343.15 K, x1 = 0.5012): 2.96 ± 0.059 S/m
- viscosity (343.15 K, x1 = 0.5012): 2.91 ± 0.58 mPa·s
- electrical conductivity (343.15 K, x1 = 0.6015): 2.74 ± 0.055 S/m
- viscosity (343.15 K, x1 = 0.6015): 3.64 ± 0.73 mPa·s
- electrical conductivity (343.15 K, x1 = 0.7032): 2.54 ± 0.051 S/m
- viscosity (343.15 K, x1 = 0.7032): 4.69 ± 0.94 mPa·s
- electrical conductivity (343.15 K, x1 = 0.8004): 2.33 ± 0.047 S/m
- viscosity (343.15 K, x1 = 0.8004): 6.2 ± 1.2 mPa·s
- electrical conductivity (343.15 K, x1 = 0.9002): 2.11 ± 0.042 S/m
- viscosity (343.15 K, x1 = 0.9002): 8.5 ± 1.7 mPa·s
- electrical conductivity (343.15 K, x1 = 1): 1.92 ± 0.038 S/m
- viscosity (343.15 K, x1 = 1): 11.3 ± 2.3 mPa·s

SMILES: CCCCCCCCCCCC[N+](C)(C)Cc1ccccc1.[Cl-] + C[C@H](N)C(=O)O + O
- electrical conductivity (308.15 K, x2 = 0.001773, x1 = 0.0002699): 0.11 ± 0.0067 S/m
- electrical conductivity (308.15 K, x2 = 0.001773, x1 = 0.0002888): 0.115 ± 0.0071 S/m
- electrical conductivity (308.15 K, x2 = 0.001773, x1 = 0.0003053): 0.119 ± 0.0073 S/m
- electrical conductivity (308.15 K, x2 = 0.001773, x1 = 0.0003178): 0.123 ± 0.0077 S/m
- electrical conductivity (313.15 K, x2 = 0.0009017, x1 = 0.000273): 0.125 ± 0.0076 S/m
- electrical conductivity (313.15 K, x2 = 0.0009017, x1 = 0.0002923): 0.13 ± 0.0079 S/m
- electrical conductivity (313.15 K, x2 = 0.0009017, x1 = 0.00031): 0.135 ± 0.0082 S/m
- electrical conductivity (313.15 K, x2 = 0.0009017, x1 = 0.0003245): 0.138 ± 0.0085 S/m
- electrical conductivity (313.15 K, x2 = 0.0009018, x1 = 0.0001745): 0.0955 ± 0.0059 S/m
- electrical conductivity (313.15 K, x2 = 0.0009018, x1 = 0.0002014): 0.104 ± 0.0064 S/m
- electrical conductivity (313.15 K, x2 = 0.0009018, x1 = 0.0002282): 0.112 ± 0.0069 S/m
- electrical conductivity (313.15 K, x2 = 0.0009018, x1 = 0.0002515): 0.119 ± 0.0073 S/m
- electrical conductivity (313.15 K, x2 = 0.0009019, x1 = 5.732e-05): 0.0341 ± 0.0021 S/m
- electrical conductivity (313.15 K, x2 = 0.0009019, x1 = 7.956e-05): 0.0468 ± 0.0029 S/m
- electrical conductivity (313.15 K, x2 = 0.0009019, x1 = 0.0001004): 0.0583 ± 0.0036 S/m
- electrical conductivity (313.15 K, x2 = 0.0009019, x1 = 0.0001231): 0.0708 ± 0.0044 S/m
- electrical conductivity (313.15 K, x2 = 0.0009019, x1 = 0.0001486): 0.0843 ± 0.0052 S/m
- electrical conductivity (313.15 K, x2 = 0.001773, x1 = 8.528e-05): 0.0495 ± 0.0032 S/m
- electrical conductivity (313.15 K, x2 = 0.001773, x1 = 0.0001054): 0.0605 ± 0.0039 S/m
- electrical conductivity (313.15 K, x2 = 0.001773, x1 = 0.0001263): 0.072 ± 0.0046 S/m
- electrical conductivity (313.15 K, x2 = 0.001773, x1 = 0.00015): 0.0843 ± 0.0053 S/m
- electrical conductivity (313.15 K, x2 = 0.001773, x1 = 0.000176): 0.095 ± 0.0058 S/m
- electrical conductivity (313.15 K, x2 = 0.001773, x1 = 0.0002016): 0.103 ± 0.0063 S/m
- electrical conductivity (313.15 K, x2 = 0.001773, x1 = 0.0002266): 0.111 ± 0.0068 S/m
- electrical conductivity (313.15 K, x2 = 0.001773, x1 = 0.0002493): 0.117 ± 0.0072 S/m
- electrical conductivity (313.15 K, x2 = 0.001773, x1 = 0.0002699): 0.123 ± 0.0075 S/m
- electrical conductivity (313.15 K, x2 = 0.001773, x1 = 0.0002888): 0.128 ± 0.0079 S/m
- electrical conductivity (313.15 K, x2 = 0.001773, x1 = 0.0003053): 0.133 ± 0.0082 S/m
- electrical conductivity (313.15 K, x2 = 0.001773, x1 = 0.0003178): 0.137 ± 0.0085 S/m
- electrical conductivity (313.15 K, x2 = 0.001774, x1 = 6.278e-05): 0.0369 ± 0.0024 S/m

SMILES: CCCCCCCCCCCC[N+](C)(C)Cc1ccccc1.[Cl-] + NCC(=O)O + O
- electrical conductivity (308.15 K, x2 = 0.001759, x1 = 0.000265): 0.11 ± 0.0068 S/m
- electrical conductivity (308.15 K, x2 = 0.001759, x1 = 0.000284): 0.115 ± 0.0071 S/m
- electrical conductivity (308.15 K, x2 = 0.001759, x1 = 0.0003018): 0.119 ± 0.0073 S/m
- electrical conductivity (308.15 K, x2 = 0.001759, x1 = 0.0003141): 0.122 ± 0.0075 S/m
- electrical conductivity (313.15 K, x2 = 0.0008873, x1 = 0.0002851): 0.128 ± 0.0078 S/m
- electrical conductivity (313.15 K, x2 = 0.0008873, x1 = 0.0003053): 0.134 ± 0.0082 S/m
- electrical conductivity (313.15 K, x2 = 0.0008873, x1 = 0.0003201): 0.138 ± 0.0084 S/m
- electrical conductivity (313.15 K, x2 = 0.0008874, x1 = 0.0001939): 0.102 ± 0.0063 S/m
- electrical conductivity (313.15 K, x2 = 0.0008874, x1 = 0.0002197): 0.11 ± 0.0067 S/m
- electrical conductivity (313.15 K, x2 = 0.0008874, x1 = 0.0002434): 0.117 ± 0.0072 S/m
- electrical conductivity (313.15 K, x2 = 0.0008874, x1 = 0.0002654): 0.123 ± 0.0075 S/m
- electrical conductivity (313.15 K, x2 = 0.0008875, x1 = 5.836e-05): 0.0349 ± 0.0022 S/m
- electrical conductivity (313.15 K, x2 = 0.0008875, x1 = 8.059e-05): 0.0474 ± 0.003 S/m
- electrical conductivity (313.15 K, x2 = 0.0008875, x1 = 0.0001014): 0.0589 ± 0.0037 S/m
- electrical conductivity (313.15 K, x2 = 0.0008875, x1 = 0.0001212): 0.0699 ± 0.0043 S/m
- electrical conductivity (313.15 K, x2 = 0.0008875, x1 = 0.0001444): 0.0821 ± 0.0051 S/m
- electrical conductivity (313.15 K, x2 = 0.0008875, x1 = 0.0001686): 0.0935 ± 0.0058 S/m
- electrical conductivity (313.15 K, x2 = 0.001759, x1 = 5.744e-05): 0.0349 ± 0.0022 S/m
- electrical conductivity (313.15 K, x2 = 0.001759, x1 = 7.9e-05): 0.047 ± 0.003 S/m
- electrical conductivity (313.15 K, x2 = 0.001759, x1 = 9.947e-05): 0.0584 ± 0.0037 S/m
- electrical conductivity (313.15 K, x2 = 0.001759, x1 = 0.0001207): 0.0699 ± 0.0044 S/m
- electrical conductivity (313.15 K, x2 = 0.001759, x1 = 0.0001453): 0.0829 ± 0.0052 S/m
- electrical conductivity (313.15 K, x2 = 0.001759, x1 = 0.0001712): 0.0942 ± 0.0058 S/m
- electrical conductivity (313.15 K, x2 = 0.001759, x1 = 0.0001971): 0.103 ± 0.0063 S/m
- electrical conductivity (313.15 K, x2 = 0.001759, x1 = 0.0002216): 0.11 ± 0.0067 S/m
- electrical conductivity (313.15 K, x2 = 0.001759, x1 = 0.0002442): 0.117 ± 0.0072 S/m
- electrical conductivity (313.15 K, x2 = 0.001759, x1 = 0.000265): 0.123 ± 0.0075 S/m
- electrical conductivity (313.15 K, x2 = 0.001759, x1 = 0.000284): 0.128 ± 0.0078 S/m
- electrical conductivity (313.15 K, x2 = 0.001759, x1 = 0.0003018): 0.133 ± 0.0081 S/m
- electrical conductivity (313.15 K, x2 = 0.001759, x1 = 0.0003141): 0.136 ± 0.0083 S/m
